Some of the results follow. The full chains were built here from the parent and the listed change. Values near 0.05 are background.
B1: TEV protease; numbered along this chain (parent)
chain: MGESLFKGPRDYNPISSSICHLTNESDGHTTSLYGIGFGPFIITNKHLFRRNNGTLVVQSLHGVFKVKDTTTLQQHLVDGRDMIIIRMPKDFPPFPQKLKFREPQREERICLVTTNFQTKSMSSMVSDTSCTFPSGDGIFWKHWIQTKDGQCGSPLVSTRDGFIVGIHSASNFTNTNNYFTSVPKNFMELLTNQEAQQWVSGWRLNADSVLWGGHKVFMVKPEEPFQPVKEATQL

Variants of: B1
Test: raw area under fraction-flipped curve 0-4 h after induction (AUC4h, not background-subtracted), DNA-recorder readout of cleavage of the substrate (dimensionless); higher = more cleavage of the substrate by the protease variant
Conditions: temperature: 34 °C; time window: 0-4 h after rhamnose induction
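Also: Bxb1 expression induced with 0.2% (w/v) L-rhamnose at OD600 near 0.5, cultures sampled hourly, flipped fraction per protease–substrate barcode pair counted by paired-end Illumina sequencing.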

| Variant | area with substrate ENLDFQS | area with substrate ENLEFQS | area with substrate ENLFFQS | area with substrate ENLGFQS | area with substrate ENLHFQS | area with substrate ENLIFQS | area with substrate ENLKFQS | area with substrate ENLLFQS | area with substrate ENLMFQS | area with substrate ENLNFQS | area with substrate ENLPFQS | area with substrate ENLRFQS | area with substrate ENLSFQS | area with substrate ENLVFQS | area with substrate ENLWFQS | area with substrate ENLQFQS | area with substrate ENLTFQS |
| --- | --- | --- | --- | --- | --- | --- | --- | --- | --- | --- | --- | --- | --- | --- | --- | --- | --- |
| W144N | 0.0694 | 0.0735 | 0.0714 | 0.0663 | 0.0638 | 0.0663 | 0.0688 | 0.0602 | 0.0666 | 0.0776 | 0.0645 | 0.0737 | 0.0492 |  |  |  |  |
| H168G |  |  | 0.0104 |  | 0.0641 |  |  |  |  | 0.0694 |  |  | 0.0727 | 0.0638 | 0.0704 |  |  |
| H168A | 0.0689 | 0.0736 |  |  |  |  |  |  | 0.066 |  |  | 0.078 |  |  |  |  |  |
| P184H | 0.0621 | 0.0597 | 0.0658 |  | 0.0301 |  | 0.0614 | 0.0545 |  |  | 0.0586 | 0.0563 |  | 0.0592 |  |  |  |
| L112F | 0.0496 | 0.0734 | 0.074 |  | 0.0655 |  | 0.101 | 0.0806 | 0.0744 | 0.0615 |  | 0.0784 | 0.0554 |  | 0.056 |  |  |
| T176R | 0.072 |  | 0.0635 |  | 0.0522 |  | 0.0745 |  | 0.0629 | 0.0669 |  |  | 0.0552 |  |  | 0.0673 | 0.0655 |
| T176V |  | 0.0716 |  |  |  | 0.121 | 0.0563 | 0.0585 |  |  | 0.0659 | 0.0581 |  |  |  |  |  |
| T176F |  |  | 0.0682 |  |  | 0.0644 |  |  | 0.0671 | 0.0789 |  |  | 0.0617 | 0.0543 |  |  |  |
| T192W |  |  |  |  |  |  | 0.103 |  |  |  |  |  |  |  |  |  |  |
| T192V | 0.0525 | 0.0441 | 0.0831 |  |  | 0.0869 | 0.0826 |  | 0.0938 | 0.0576 |  | 0.0665 |  | 0.117 |  | 0.0774 |  |
| V200I | 0.0654 | 0.0629 |  |  |  |  | 0.0708 |  |  |  | 0.0475 |  | 0.0868 |  |  |  |  |
| V200S |  |  |  |  |  | 0.065 |  |  |  |  |  |  |  |  |  |  |  |
| V200W | 0.0754 |  |  |  | 0.0552 |  | 0.0646 |  | 0.0542 |  |  |  |  |  |  |  |  |
| V200A |  |  | 0.0591 |  |  |  |  |  |  |  |  | 0.077 |  |  |  |  |  |
| Q197W | 0.0578 | 0.0654 | 0.0945 | 0.0794 | 0.0608 |  | 0.0696 | 0.0544 | 0.062 | 0.0635 | 0.062 | 0.0877 | 0.0439 |  |  |  |  |
| G80T |  | 0.0566 | 0.0767 | 0.0526 | 0.0482 |  | 0.077 | 0.0666 | 0.0622 | 0.0619 | 0.0636 | 0.0632 | 0.0525 | 0.0826 | 0.0527 | 0.0597 |  |
| G80K | 0.0631 | 0.0676 | 0.104 | 0.0673 | 0.073 | 0.075 | 0.0754 |  | 0.0633 | 0.0795 | 0.062 | 0.0605 | 0.0788 | 0.0708 |  |  |  |
| V64T | 0.0597 |  | 0.0986 |  |  | 0.0919 | 0.0499 |  |  |  |  | 0.0796 |  | 0.0844 |  | 0.0437 |  |
| V64Q | 0.0717 |  |  | 0.0698 | 0.0756 |  |  | 0.0803 |  | 0.0688 | 0.067 | 0.0636 |  |  | 0.0735 |  |  |
| P96L | 0.0617 | 0.0653 | 0.0913 | 0.0467 |  | 0.0893 | 0.068 |  |  | 0.065 | 0.0491 |  | 0.0616 |  | 0.073 |  |  |

| Variant | area with substrate ENLDFQS | area with substrate ENLEFQS | area with substrate ENLFFQS | area with substrate ENLGFQS | area with substrate ENLHFQS | area with substrate ENLIFQS | area with substrate ENLKFQS | area with substrate ENLLFQS | area with substrate ENLMFQS | area with substrate ENLNFQS | area with substrate ENLPFQS | area with substrate ENLRFQS | area with substrate ENLSFQS | area with substrate ENLVFQS | area with substrate ENLWFQS | area with substrate ENLQFQS | area with substrate ENLTFQS |
| --- | --- | --- | --- | --- | --- | --- | --- | --- | --- | --- | --- | --- | --- | --- | --- | --- | --- |
| P96K | 0.0972 | 0.0513 | 0.0786 |  | 0.0752 |  | 0.0827 | 0.0609 |  | 0.0754 |  |  | 0.0658 |  | 0.0651 |  |  |
| A232K |  |  | 0.119 |  | 0.0548 |  | 0.083 |  | 0.0758 | 0.0478 | 0.0612 | 0.0762 | 0.0474 |  |  | 0.0869 |  |
| A232F | 0.0557 |  | 0.0751 |  | 0.0664 |  | 0.0732 | 0.0393 |  | 0.0654 |  | 0.0722 | 0.0638 | 0.0738 |  | 0.0555 |  |
| A232V | 0.0752 |  |  |  | 0.0645 |  |  |  |  |  |  |  |  |  | 0.0586 | 0.0628 |  |
| E224N | 0.0667 | 0.0557 | 0.0845 | 0.0598 |  | 0.0836 | 0.0975 | 0.0577 | 0.0865 | 0.0666 | 0.0266 | 0.0684 | 0.0637 |  | 0.0889 | 0.0748 | 0.0679 |
| K120P | 0.0659 | 0.0676 |  |  |  | 0.0923 | 0.0627 |  | 0.0603 | 0.0642 | 0.0612 |  | 0.0481 |  |  |  | 0.0683 |
| N24H |  | 0.0576 | 0.0693 | 0.0809 |  | 0.0766 | 0.0677 |  | 0.0567 | 0.071 | 0.0578 | 0.0732 | 0.0686 | 0.0904 | 0.068 |  |  |
| M88H |  |  |  |  |  | 0.0568 |  | 0.0586 |  |  |  | 0.0702 |  |  | 0.0443 | 0.0304 |  |
| M88E | 0.0648 | 0.0502 | 0.0391 |  | 0.0753 |  | 0.0534 |  |  | 0.0683 | 0.0432 |  |  | 0.0644 |  |  |  |
| M88C |  |  | 0.0701 | 0.0574 | 0.0871 |  |  |  |  |  | 0.0618 |  |  |  | 0.0552 | 0.0924 | 0.0576 |
| G8F |  |  | 0.169 | 0.0561 |  | 0.0787 | 0.0898 | 0.0583 |  | 0.0618 | 0.0545 |  |  | 0.0835 |  | 0.0755 |  |
| L56C | 0.0446 | 0.065 | 0.0914 | 0.0562 | 0.051 | 0.0803 | 0.0721 | 0.0502 |  | 0.0497 | 0.0761 | 0.0635 | 0.0696 |  |  | 0.0629 | 0.0617 |
| L56I | 0.042 | 0.0688 | 0.0924 |  |  |  |  |  |  | 0.0663 |  | 0.0801 | 0.0684 |  |  | 0.0629 |  |
| D149M | 0.0709 | 0.0664 | 0.0694 | 0.0943 | 0.0555 |  | 0.0665 | 0.0882 |  | 0.0661 | 0.0537 | 0.0703 | 0.0751 |  | 0.069 | 0.0542 |  |
| D208Q | 0.0582 | 0.0633 | 0.0739 | 0.0707 | 0.0406 |  | 0.0303 |  |  | 0.0628 | 0.069 |  | 0.0349 |  | 0.0555 | 0.0575 |  |
| D208N | 0.0725 | 0.0608 | 0.0641 |  | 0.0539 |  | 0.0837 | 0.0868 |  | 0.065 | 0.0608 | 0.059 |  |  |  | 0.0673 |  |
| D128M |  | 0.0659 | 0.117 | 0.0774 | 0.0847 | 0.144 | 0.121 | 0.159 | 0.126 | 0.0633 | 0.0596 | 0.109 | 0.0925 | 0.16 | 0.082 | 0.1 |  |
| D128I | 0.0582 | 0.0659 |  |  |  |  | 0.0917 |  |  |  | 0.0638 |  |  |  | 0.0851 |  |  |
| D128A | 0.0706 | 0.159 | 0.0986 | 0.0781 |  | 0.0981 | 0.106 | 0.0887 | 0.0821 | 0.0578 | 0.0536 | 0.0779 |  |  | 0.0925 |  | 0.0606 |
| D128C | 0.0678 | 0.0618 | 0.101 | 0.0601 | 0.0813 | 0.105 | 0.0893 | 0.0593 | 0.0813 | 0.0846 | 0.0706 | 0.0801 | 0.0874 |  | 0.0773 | 0.0824 | 0.0545 |

From the supplement of paper PMC12217912
